Experimental data from the RNAGym collection of RNA variant scans (doi:10.1093/nar/gkz1192).
The source gives no read counts; variants with many changes may rest on few reads.

B1: CPEB3 Ribozyme (parent)
chain: UAACAGGGGGCCACAGCAGAAGCGUUCACGUCGCAGCCCCUGUCAGAUUCUGGUGAAUCUGCGAAUUCUGCUGUAUAUCUC

Variants of: B1
Test: self-cleavage, relative activity (ratio to wild type); higher = more cleavage; in vitro, sequencing
Procedure, shortened: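 Libraries of CPEB3 self-cleaving ribozyme mutants came from rounds of error-prone PCR and carried barcodes, which DNA sequencing matched to variants. In vitro transcription used T7 RNA polymerase at 37°C for 5 hours, with a further 15 min in DNase I before EDTA stopped the reaction; the ribozymes cleaved during both steps. The RNA was reverse transcribed with template switching and sequenced on Illumina. Relative activity is the cleaved/total read fraction of a variant divided by that of the unmutated ribozyme, averaged over three batches with at least 5 reads.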

Variant	self-cleavage
C32A U54A U76C U80C	0.29
C32A U54G C68U	0.11
C32G A45U U48A A65C	0.13
C32G A57G A65G U66C U69C	0.04
C32G A65U U80A	0.13
C32G C62G U69C	0.09
C32G U60A U72A	0.12
C32U A35G A56G	0.14
C32U A35G U41C U72C	0.11
C32U A35G U58C	0.14
C32U A35U A56G C71U U72C	0.33
C32U A45C U58C	0.11
C32U C37G C44A G63A	0.16
C32U C44U U67C	0.13
C32U G36U A45C U48C U60C U76A	0.06
C32U U41C G55A A56U A57G	0.08
C32U U41C U54C	0.21
C32U U41C U58C A65U U74C A77U	0.07
C32U U41C U72C	0.09
C32U U49C U66C U78A	0.14
C32U U49C U69C	0.17
C32U U51A A57U C59A	0.17
C32U U51A U58A U80C	0.12
C32U U51A U80C	0.65

Variant	self-cleavage
C32U U51C U54A U72C U80C	0.1
C32U U58C C62U U80C	0.13
G33A A35G U43C G55A	0.05
G33A A35G U51A	0.22
G33A A35U A47G	0.41
G33A A35U C62A A65G U72C U74A U80C	0.05
G33A A35U U41A A57G A65G U78A	0.06
G33A A45C A56U U78C	0.12
G33A A45G A47U	0.19
G33A A56G U67C U69C	0.16
G33A A64G A75U	0.13
G33A C38U U43A U51A U72C U80A	0.08
G33A C39A G42A	0.4
G33A G46A A56G U69C	0.2
G33A G61U U72A	0.12
G33A U41A A56U U78A	0.14
G33A U41A C50U A56G	0.08
G33A U41A U49C	0.16
G33A U41A U69C U80C	0.14
G33A U43C U49C U66C U67C U80C	0.05
G33A U49C U72A A75G	0.07
G33A U49C U72C	0.05
G33A U49C U78C	0.15
G33A U51A U58C U72C U80C	0.15

Variant	self-cleavage
G33A U51C A57G A77G	0.24
G33A U54C A64G U67A	0.17
G33A U58C G63A U80C	0.14
G33A U67C U74A	0.04
G33A U69C U72C	0.15
G33C A47G A56G A64G U67C C81U	0.31
G33C C34A C40U U54C A64G U72C	0.06
G33C C39A U48C U58A U74C	0.11
G33C G36C U51A U67A	0.09
G33C G52A C59A U72C	0.07
G33C G53U A75G	0.07
G33C G53U U67C A75G	0.09
G33C G55U U66C A77G	0.11
G33C U43A A47U U60C U74A	0.1
G33C U60G A75C A77G	0.17
G33C U69A U78C	0.23
G33U A35G A45U A56G U76C	0.1
G33U A35U A65G	0.13
G33U A35U U51C U80A	0.09
G33U A45G A57G U60A U66A	0.07
G33U A47U U49C	0.17
G33U C62G U78C	0.13
G33U U41C A77U	0.09
G33U U49C G53A U66C	0.3

Variant	self-cleavage
G33U U51C C62U	0.25
G33U U54C U58C U72C	0.08
G33U U60A U69C	0.1
G33U U60C U67C U69G	0.19
G33U U67C U78C	0.13
G33U U67G U78C	0.13
C34A A57G U60C U72A	0.12
C34A C40U U54C A75G	0.04
C34A U41A G46C A57G U58A U60C U69C	0.08
C34A U41C U60A	0.15
C34A U48C U54C A65G G73C	0.05
C34A U49A U60C	0.11
C34G A45U U58C U69C U74C	0.14
C34G C40U A47G	0.18
C34G U41C U60A	0.19
C34G U49G A64G U66A	0.04
C34U A35G C44G	0.08
C34U A35U A65G G73U	0.47
C34U A45G G73A U76C	0.81
C34U A47G A56G	0.18
C34U G52A U74A U80C	0.68
C34U G61A U78C	0.07
C34U U41A U60C	0.19
C34U U41C G42C U72A	0.17

Variant	self-cleavage
C34U U41C U67C	0.09
C34U U43A U67C U80C	0.15
C34U U43C A45U U49C	0.09
C34U U48C U60A	0.2
C34U U49C U72C	0.12
C34U U60C U67C U69A U76A	0.13
C34U U67A U78C	0.14
A35C A45U A56G	0.14
A35C A56U A57U	0.24
A35C C40U G63U U67G A75G	0.3
A35C C40U U51C	0.49
A35C C71U U76C	0.59
A35C G36A A47G	0.18
A35C G70A U78C	0.15
A35C U41A U51C U58C U74A	0.14
A35C U41C U60A U72C U76A	0.25
A35C U41C U72C	1.04
A35C U51C A56U U66C U78C	0.09
A35C U54C A65G	0.34
A35C U60A U76C U80C	0.47
A35C U67A U80C	0.4
A35C U72C U76A	1.25
A35G A45G A64G U76C	1.23
A35G A45G U69A	1.06

Variant	self-cleavage
A35G A45G U74A	1.27
A35G A45U U49A U51A	0.62
A35G A45U U60C A75G C79G	1.25
A35G A47G C62U U67C	0.63
A35G A47G U51C A64G U74C U78C	1.31
A35G A56G C79A	1.26
A35G A56G G61A	0.7
A35G A56G U69C	0.93
A35G A56G U76C	1.08
A35G A56U G61A	0.29
A35G A56U U60C U67C C71U	0.38
A35G A57G A64C U72A U74G	0.96
A35G A57G U58A C59U A64U U78C	0.46
A35G A57G U60C U69C	0.48
A35G A64U A65G U69C	0.56
A35G A75G U78C	1.31
A35G C37A A64G	0.8
A35G C37G A47G	0.53
A35G C37G U41A	0.15
A35G C37U U48A	1.25
A35G C38A A57G A64G	1.07
A35G C38U A64U	1.06
A35G C39A U72C	1.06
A35G C39U A47G U66A A77G	1

Variant	self-cleavage
A35G C39U A56G U60A	0.92
A35G C40A U48C	0.43
A35G C40U U41A C62U	0.19
A35G C44A A57G	0.72
A35G C50A U80C	1.17
A35G C50U A65G	1.17
A35G C62G U74A	0.27
A35G C71A U72G	0.32
A35G G36A A56G	1.06
A35G G36A A56G U60C	0.25
A35G G36A U58C U67A U69C	0.1
A35G G36C A47G	0.16
A35G G36C U48C U67C U80A	0.07
A35G G42A U43A U51C U58G	0.07
A35G G46A U74C	1.19
A35G G46U U66C U74A	0.19
A35G G52A U78A	1.28
A35G G63C A64U U80G	0.87
A35G U41A A45C A57C	0.07
A35G U41A A47G	0.31
A35G U41A A56G	0.27
A35G U41A C62A	0.09
A35G U41A G52U A64G U67C U72G	0.08
